Results taken from PubChem BioAssay (NCATS).
Inconclusive means that the source gave no clear call. Such entries were picked first, then a sample of the others. No potency is given beside an inconclusive call; the fits are too rough. The source made the active and inactive calls. Calls follow the shape of the dose curve; as a rule, active = well fitted curve in the direction sought with a large enough effect; inconclusive = small, poorly fitted or top-dose-only effect, or another doubt; inactive = no such curve, though single readings can be large; an effect the other way counts as inactive or inconclusive.

What was measured:
[1] = qHTS for Inhibitors of Plasmodium falciparum (DD2) proliferation (AID 504314);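 as to activity, negative = inhibition: parasite DNA measured by SYBR Green fluorescence after red cell lysis; plate controls were DMSO vehicle for no effect and artemisinin wells for full effect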; conditions: P. falciparum Dd2 in erythrocytes, SYBR Green growth, 72 h; activity, negative = inhibition: at 6.11 µM (top of the series)
In short: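 Parasite proliferation measured as SYBR Green signal from Plasmodium DNA, mature erythrocytes lacking DNA. 72 h incubation, 37C; activity scaled between vehicle and 0.29 uM artemisinin, with correction from vehicle-only plates.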

[2] = qHTS for Inhibitors of Plasmodium falciparum (GB4) proliferation (AID 504315); also: nearly all actives have a fitted effect of over 50% in size;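 as to activity change, negative = inhibition: 0% = DMSO vehicle and -100% = 0.29 µM artemisinin control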; conditions: P. falciparum GB4 in erythrocytes, SYBR Green DNA, 72 h; activity change, negative = inhibition: at 6.7 µM (top of the series)
In short: (§1)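 Parasite growth measured as SYBR Green DNA fluorescence (ex 485, em 535 nm) after overnight lysis following 72 h culture at 37 °C, 0.3% parasitemia, 2.5% hematocrit. Values normalized against DMSO and 0.29 uM artemisinin controls, with plate-stack correction.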

[3] = qHTS for Inhibitors of Plasmodium falciparum (7G8) proliferation (AID 504316); also: nearly all actives have a fitted effect of over 65% in size; conditions: P. falciparum 7G8 in erythrocytes, SYBR Green DNA, 72 h; activity change, negative = inhibition: at 6.7 µM (top of the series)
In short: as §1

[4] = qHTS for Inhibitors of Plasmodium falciparum (HB3) proliferation (AID 504318); also: nearly all actives have a fitted effect of over 60% in size;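 as to activity change, negative = inhibition: 0% = DMSO vehicle and -100% = artemisinin control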; conditions: P. falciparum HB3 in erythrocytes, SYBR Green DNA, 72 h; activity change, negative = inhibition: at 7.21 µM (top of the series)
In short: as §1
Potency is read from the fitted curve at half-maximal effect; tags tell the direction and shape of the fitted curve.

SMILES | Potency [1] | Potency [2] | Potency [3] | Potency [4] | activity, negative = inhibition [1]
COc1cccc([C@H]2NC(=O)C[C@@H]3C[C@@H](C)[C@@H](c4cccc(OC)c4)N3C(=O)C=CC[C@@H]2C)c1 | inconclusive [inhibitor, partial curve] | inconclusive [inhibitor, single point] | inconclusive [inhibitor, single point] | inconclusive [inhibitor, partial curve] | 
COC(=O)CC=C1c2ccccc2[C@@H](O)[C@@H]1C | inconclusive [inhibitor, partial curve] | inconclusive [inhibitor, single point] | inconclusive [inhibitor, single point] | inconclusive [inhibitor, single point] | 
C=CCOCCC=C1c2ccccc2[C@@H](OC)[C@@H]1C | inconclusive [inhibitor, partial curve] | inconclusive [inhibitor, single point] | active: 1510 nM | inconclusive [inhibitor, single point] | 
C[C@@H]1[C@H](c2ccccc2)c2cc3ccccc3nc2C(=O)C[C@@H]1C(=O)N1CCCC1 | inconclusive [inhibitor, partial curve] | inconclusive [inhibitor, single point] | inconclusive [inhibitor, single point] | inconclusive [inhibitor, partial curve] | 
C[C@@H]1CC[C@H]2C(=O)N(CC3CCCCC3)C[C@H](O)CN2[C@@H]1c1ccc(Br)cc1 | inconclusive [inhibitor, partial curve] | inconclusive [inhibitor, single point] | inconclusive [inhibitor, partial curve] | inconclusive [inhibitor, partial curve] | 
CC1=C[C@@H](COc2ccccc2)O[C@@]2(C1)C(=O)N(Cc1ccccc1)c1ccccc12 | inconclusive [inhibitor, partial curve, poor fit] | inconclusive [inhibitor] | active: 757 nM | inactive | 
CCc1cc2c(nc1CC)CCN(CCC(C)=NO[C@H](C)c1cn([C@H](CO)Cc3ccccc3)nn1)C2 | inconclusive [inhibitor, partial curve] | inconclusive [inhibitor, single point] | active: 1510 nM | inconclusive [inhibitor, partial curve] | 
O=C1Nc2ccccc2[C@@]12O[C@H](COc1ccccc1)CC1=C2CCC1 | inconclusive [inhibitor, partial curve, poor fit] | inconclusive [inhibitor, single point] | inconclusive [inhibitor, single point] | inconclusive [inhibitor, partial curve, poor fit] | 
CCOC(=O)CN1C(=O)[C@]2(OC[C@@H]3Cc4ccccc4[C@H]3C=C2C)c2ccccc21 | inconclusive [inhibitor, partial curve, poor fit] | inconclusive [inhibitor, single point] | inconclusive [inhibitor, single point] | inconclusive [inhibitor, partial curve] | 
COc1cc2c(c(OC)c1OC)CC(c1ccccc1)=C(c1ccccc1)CC2NC(=O)C(F)(F)F (configuration not stated) | inconclusive [inhibitor, single point] | inconclusive [inhibitor, single point] | inconclusive [inhibitor, single point] | inconclusive [inhibitor, partial curve] | 
COc1ccc(-c2nc3c(c4c2C[C@H](c2ccccc2)OC4)CN(S(=O)(=O)c2ccc(C#N)cc2)CC3)c(C)c1 |  | inconclusive [inhibitor, single point] | active: 1510 nM | inconclusive [inhibitor, single point] | inactive: -3.23% [at 1.12 µM]
COC(=O)C(C(=O)OC)C1OC23CN(S(=O)(=O)c4ccc(C)cc4)C=CC2(C)C3c2ccccc21 (configuration not stated) | inconclusive [inhibitor, single point] | inconclusive [inhibitor, single point] | inconclusive [inhibitor, partial curve] | inconclusive [inhibitor, single point] | 
COC(=O)C1=C(C)N(CC2CC2)C(N(C)Cc2ccc(OC)cc2)=NC1c1ccccc1 (configuration not stated) | inconclusive [inhibitor, single point] | inconclusive [inhibitor, single point] | inconclusive [inhibitor, single point] | inactive | 
CCC=CC[C@@]1(C(=O)OC)C=C[C@@H](C)[C@H](c2ccccc2Br)N1C(=O)C(F)(F)F | inconclusive [inhibitor, single point] | inconclusive [inhibitor, partial curve, poor fit] | inconclusive [inhibitor, full curve, poor fit] | inconclusive [inhibitor, single point] | 
Cc1cccc(C)c1Nc1oc(-c2ccccc2)nc1-c1ccccc1F | inconclusive [inhibitor, single point] | inconclusive [inhibitor, single point] | inconclusive [inhibitor, partial curve] | inconclusive [inhibitor, single point] | 
C[C@@H]1C=CCC(=O)N[C@@H](c2cccc(Br)c2)[C@H](C)C=CCC(=O)N[C@@H]1c1cccc(Br)c1 | inconclusive [inhibitor, single point] | inconclusive [inhibitor, single point] | inconclusive [inhibitor, single point] | inconclusive [inhibitor, single point] | 
COc1ccc([C@]23Cc4ccccc4[C@H](O2)c2c(cc(-c4ccccc4)oc2=O)O3)cc1 | inconclusive [inhibitor, single point] | inactive | inconclusive [inhibitor, single point] | inactive | 
C=CC[C@@]1(c2ccccc2)Oc2ccccc2-c2nc3ccccc3nc21 | inconclusive [inhibitor, single point] | inconclusive [inhibitor, partial curve] | inconclusive [inhibitor, partial curve, poor fit] | inconclusive [inhibitor, single point] | 
COC(=O)C1=C(C)N(Cc2ccccc2)C(=NCC(C)C)NC1c1ccc(Br)cc1 (configuration not stated) | inconclusive [inhibitor, single point] | inconclusive [inhibitor, single point] | inconclusive [inhibitor, single point] | inconclusive [inhibitor, single point] | 
COc1cc(C(CC2=C(c3ccccc3)Cc3ccccc32)NC(=O)C(F)(F)F)cc(OC)c1OC (configuration not stated) | inactive | inconclusive [inhibitor] | inconclusive [inhibitor, single point] | inconclusive [inhibitor, partial curve] | 
COc1cccc([C@@H]2Oc3ccc(Br)cc3C[C@@H]2OC(=O)Nc2cc(OC)c(OC)c(OC)c2)c1 | inconclusive [inhibitor, single point] | inconclusive [inhibitor, partial curve, poor fit] | inconclusive [inhibitor, single point] | inconclusive [inhibitor, single point] | 
COCCN1C(=O)C2=C(C1=O)C1N(C)c3ccccc3[C@@]13C[C@@H](CO)N(C(=O)c1ccc(Br)cc1)C3=N2 (some centres not stated) | inconclusive [inhibitor, single point] | inconclusive [inhibitor, single point] | inconclusive [inhibitor, single point] | inconclusive [inhibitor, single point] | 
CC1=CC[C@@H](COc2ccccc2)O[C@@]2(C1)C(=O)N(Cc1ccc(Br)cc1)c1ccccc12 | inconclusive [inhibitor, single point] | inconclusive [inhibitor, single point] | inconclusive [inhibitor, partial curve, poor fit] | inconclusive [inhibitor, partial curve] | 
